{"source": "patent US20050004163A1", "about": "“3-(diarylmethylene)-8-azabicyclo[3.2.1]octane derivatives” (priority 2000, published 2005)", "data": [{"target": "T1, δ-opioid receptor (Rattus norvegicus, UniProt P33533)", "T1 construct": "the forebrains are homogenized in Tris buffer in a Teflon®-glass homogenizer; from tissue; host or cells: forebrain of male Wistar rats (particulate membrane preparation)", "T1 sequence (P33533 whole entry)": "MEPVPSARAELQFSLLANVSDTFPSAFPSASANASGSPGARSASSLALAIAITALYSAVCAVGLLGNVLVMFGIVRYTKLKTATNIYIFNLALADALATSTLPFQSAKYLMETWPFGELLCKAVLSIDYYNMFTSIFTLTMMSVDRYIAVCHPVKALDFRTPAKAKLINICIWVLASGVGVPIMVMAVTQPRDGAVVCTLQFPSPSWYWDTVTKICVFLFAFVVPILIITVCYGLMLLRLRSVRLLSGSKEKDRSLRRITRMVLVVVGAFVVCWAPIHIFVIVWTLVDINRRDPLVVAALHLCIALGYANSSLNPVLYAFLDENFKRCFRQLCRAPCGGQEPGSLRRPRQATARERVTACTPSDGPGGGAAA", "details": "DOR binding Ki, rat brain δ opioid receptor binding; 10 nM solutions of the compounds", "units": {"Ki": "nM"}, "values": [{"molecule": "CCNC(=O)c1ccc(C(=C2CC3CCC(C2)N3Cc2nccs2)c2ccc(C(=O)O)cc2)cc1", "note": "[Cpd 174]", "Ki": 2.34}, {"molecule": "CCNC(=O)c1ccc(C(=C2CC3CCC(C2)N3C(=O)c2cccs2)c2cccnc2)cc1", "note": "[Cpd 208, N-Ethyl-4-{pyridin-3-yl-[8-(thiophene-2-carbonyl)-8-aza-bicyclo[3.2.1]oct-3-ylidene]-methyl}-benzamide]", "Ki": 1330}, {"molecule": "CCNC(=O)c1ccc(C(=C2CC3CCC(C2)N3Cc2ccsc2)c2ccc(CO)cc2)cc1", "note": "[Cpd 205]", "Ki": 2.04}, {"molecule": "CCNC(=O)c1ccc(C(=C2CC3CCC(C2)N3Cc2nccs2)c2cccc(CN)c2)cc1", "note": "[Cpd 160]", "Ki": 86.2}, {"molecule": "CCNC(=O)c1ccc(C(=C2CC3CCC(C2)N3CCc2ccccc2)c2nnn[nH]2)cc1", "note": "[Cpd 149]", "Ki": 192}, {"molecule": "CCNC(=O)c1ccc(C(=C2CC3CCC(C2)N3Cc2ccoc2)c2cccc(CO)c2)cc1", "note": "[Cpd 178]", "Ki": 0.15}, {"molecule": "CCNC(=O)c1ccc(C(=C2CC3CCC(C2)N3Cc2nccs2)c2nnn[nH]2)cc1", "note": "[Cpd 150]", "Ki": 349}, {"molecule": "CCNC(=O)c1ccc(C(=C2CC3CCC(C2)N3CCc2ccccc2)c2cccc(CN)c2)cc1", "note": "[Cpd 158]", "Ki": 163}, {"molecule": "CCNC(=O)c1ccc(C(=C2CC3CCC(C2)N3Cc2nccs2)c2cccc(-c3nnn[nH]3)c2)cc1", "note": "[Cpd 167]", "Ki": 8.91}, {"molecule": "CCNC(=O)c1ccc(C(=C2CC3CCC(C2)N3CC=C(C)C)c2cccc(CN)c2)cc1", "note": "[Cpd 156]", "Ki": 35.6}, {"molecule": "CCNC(=O)c1ccc(C(=C2CC3CCC(C2)N3Cc2ccsc2)c2cccc(CO)c2)cc1", "note": "[Cpd 189]", "Ki": 14.2}, {"molecule": "CCNC(=O)c1ccc(C(=C2CC3CCC(C2)N3Cc2nccs2)c2ccc(CO)cc2)cc1", "note": "[Cpd 195]", "Ki": 7.51}, {"molecule": "CCNC(=O)c1ccc(C(=C2CC3CCC(C2)N3Cc2ccsc2)c2ccc(C(N)=O)cc2)cc1", "note": "[Cpd 191]", "Ki": 12}, {"molecule": "CCNC(=O)c1ccc(C(=C2CC3CCC(C2)N3Cc2nccs2)c2cc(C(=O)O)cc([N+](=O)[O-])c2)cc1", "note": "[Cpd 159]", "Ki": 77.4}, {"molecule": "CCNC(=O)c1ccc(C(=C2CC3CCC(C2)N3Cc2ccccn2)c2cccc(CO)c2)cc1", "note": "[Cpd 181]", "Ki": 1.74}, {"molecule": "CCNC(=O)c1ccc(C(=C2CC3CCC(C2)N3Cc2ccsc2)c2ccc(NS(C)(=O)=O)cc2)cc1", "note": "[Cpd 190]", "Ki": 0.219}, {"molecule": "CCNC(=O)c1ccc(C(=C2CC3CCC(C2)N3Cc2ccccn2)c2ccc(NS(C)(=O)=O)cc2)cc1", "note": "[Cpd 182]", "Ki": 0.52}, {"molecule": "CCN(CC)C(=O)c1ccc(C(=C2CC3CCC(C2)N3C=O)c2ccccc2)cc1", "note": "[Cpd 199]", "Ki": 136}, {"molecule": "CCNC(=O)c1ccc(C(=C2CC3CCC(C2)N3Cc2ccco2)c2cccc(CO)c2)cc1", "note": "[Cpd 179]", "Ki": 1.53}, {"molecule": "CCNC(=O)c1ccc(C(=C2CC3CCC(C2)N3Cc2ccco2)c2ccc(CO)cc2)cc1", "note": "[Cpd 192]", "Ki": 2.74}, {"molecule": "CCNC(=O)c1ccc(C(=C2CC3CCC(C2)N3Cc2nccs2)c2ccc(NS(C)(=O)=O)cc2)cc1", "note": "[Cpd 187]", "Ki": 1.44}, {"molecule": "CCNC(=O)c1ccc(C(=C2CC3CCC(C2)N3CCc2ccccc2)c2cc(C(=O)O)cc([N+](=O)[O-])c2)cc1", "note": "[Cpd 157]", "Ki": 13.2}, {"molecule": "CCNC(=O)c1ccc(C(=C2CC3CCC(C2)N3Cc2ccccn2)c2cccc(-c3nnn[nH]3)c2)cc1", "note": "[Cpd 165]", "Ki": 1.62}, {"molecule": "CCNC(=O)c1ccc(C(=C2CC3CCC(C2)N3Cc2ccoc2)c2cccc(CN)c2)cc1", "note": "[Cpd 153]", "Ki": 19.6}, {"molecule": "CCNC(=O)c1ccc(C(=C2CC3CCC(C2)N3Cc2ccsc2)c2ccc(C(=O)O)cc2)cc1", "note": "[Cpd 176]", "Ki": 1.08}, {"molecule": "CCNC(=O)c1ccc(C(=C2CC3CCC(C2)N3Cc2ccco2)c2cccc(-c3nnn[nH]3)c2)cc1", "note": "[Cpd 164, N-ethyl-4{(8-furan-2-ylmethyl-8-aza-bicyclo[3.2.1]oct-3-ylidene)-[3-(1H-tetrazol-5-yl)-phenyl]-methyl}-benzamide]", "Ki": 1.23}, {"molecule": "CCNC(=O)c1ccc(C(=C2CC3CCC(C2)N3Cc2nccs2)c2cccc(CO)c2)cc1", "note": "[Cpd 186]", "Ki": 3.9}, {"molecule": "CCNC(=O)c1ccc(C(=C2CC3CCC(C2)N3Cc2ccoc2)c2cc(C(=O)O)cc([N+](=O)[O-])c2)cc1", "note": "[Cpd 152]", "Ki": 0.94}, {"molecule": "CCNC(=O)c1ccc(C(=C2CC3CCC(C2)N3CCc2ccccc2)c2ccc(NS(C)(=O)=O)cc2)cc1", "note": "[Cpd 185]", "Ki": 30.2}, {"molecule": "CCNC(=O)c1ccc(C(=C2CC3CCC(C2)N3Cc2ccsc2)c2cccc(CN)c2)cc1", "note": "[Cpd 162]", "Ki": 7.23}, {"molecule": "CCNC(=O)c1ccc(C(C#N)=C2CC3CCC(C2)N3)cc1", "note": "[Cpd 145]", "Ki": 941}, {"molecule": "CCNC(=O)c1ccc(C(=C2CC3CCC(C2)N3Cc2ccco2)c2ccc(C(N)=O)cc2)cc1", "note": "[Cpd 180]", "Ki": 0.98}, {"molecule": "CCNC(=O)c1ccc(C(=C2CC3CCC(C2)N3Cc2ccoc2)c2ccc(C(N)=O)cc2)cc1", "note": "[Cpd 177]", "Ki": 3.91}, {"molecule": "CCNC(=O)c1ccc(C(=C2CC3CCC(C2)N3CC=C(C)C)c2cc(C(=O)O)cc([N+](=O)[O-])c2)cc1", "note": "[Cpd 155]", "Ki": 3.05}, {"molecule": "CCNC(=O)c1ccc(C(=C2CC3CCC(C2)N3C(=O)Cc2ccccc2)c2cccnc2)cc1", "note": "[Cpd 200, N-Ethyl-4-[(8-phenylacetyl-8-aza-bicyclo[3.2.1]oct-3-ylidene)-pyridin-3-yl-methyl]-benzamide]", "Ki": 5230}, {"molecule": "CCNC(=O)c1ccc(C(=C2CC3CCC(C2)N3Cc2ccsc2)c2cc(C(=O)O)cc([N+](=O)[O-])c2)cc1", "note": "[Cpd 161]", "Ki": 1.26}, {"molecule": "CCNC(=O)c1ccc(C(=C2CC3CCC(C2)N3Cc2ccsc2)c2cccc(-c3nnn[nH]3)c2)cc1", "note": "[Cpd 169]", "Ki": 0.74}, {"molecule": "CCNC(=O)c1ccc(C(=C2CC3CCC(C2)N3Cc2cccs2)c2cccc(-c3nnn[nH]3)c2)cc1", "note": "[Cpd 168]", "Ki": 0.18}, {"molecule": "CCNC(=O)c1ccc(C(=C2CC3CCC(C2)N3CCc2ccccc2)c2cccc(-c3nnn[nH]3)c2)cc1", "note": "[Cpd 166]", "Ki": 23.2}, {"molecule": "CCNC(=O)c1ccc(C(=C2CC3CCC(C2)N3Cc2ccccn2)c2cc(C(=O)O)cc([N+](=O)[O-])c2)cc1", "note": "[Cpd 154]", "Ki": 34.3}, {"molecule": "CCNC(=O)c1ccc(C(=C2CC3CCC(C2)N3Cc2ccccn2)c2ccc(CO)cc2)cc1", "note": "[Cpd 193]", "Ki": 3.22}, {"molecule": "CCNC(=O)c1ccc(C(=C2CC3CCC(C2)N3Cc2ccoc2)c2nnn[nH]2)cc1", "note": "[Cpd 144]", "Ki": 82.5}, {"molecule": "CCNC(=O)c1ccc(C(=C2CC3CCC(C2)N3CC=C(C)C)c2cccc(-c3nnn[nH]3)c2)cc1", "note": "[Cpd 163]", "Ki": 0.99}, {"molecule": "CCNC(=O)c1ccc(C(=C2CC3CCC(C2)N3Cc2ccsc2)c2cccc(C(=O)O)c2)cc1", "note": "[Cpd 175]", "Ki": 1.31}, {"molecule": "CCN(CC)C(=O)c1ccc(C(=C2CC3CCC(C2)N3C(=N)N)c2ccccc2)cc1", "note": "[Cpd 198, 4-[(8-Carbamimidoyl-8-aza-bicyclo[3.2.1]oct-3-ylidene)-phenyl-methyl]-N,N-diethyl-benzamide]", "Ki": 5.75}, {"molecule": "CCNC(=O)c1ccc(C(=C2CC3CCC(C2)N3Cc2ccsc2)c2nnn[nH]2)cc1", "note": "[Cpd 148]", "Ki": 136}, {"molecule": "CCNC(=O)c1ccc(C(=C2CC3CCC(C2)N3)c2nnn[nH]2)cc1", "note": "[Cpd 151]", "Ki": 260}, {"molecule": "CCN(CC)C(=O)c1ccc(C(=C2CC3CCC(C2)N3C#N)c2ccccc2)cc1", "note": "[Cpd 197, 4-[(8-cyano-8-aza-bicyclo[3.2.1]oct-3-ylidene)-phenyl-methyl]-N,N-diethylbenzamide]", "Ki": 5270}]}, {"target": "T1, δ-opioid receptor", "details": "rat brain δ opioid receptor binding; 10 nM solutions of the compounds; read-out: DOR binding Ki", "units": {"Ki": "nM"}, "values": [{"molecule": "CCNC(=O)c1ccc(C(=C2CC3CCC(C2)N3CC=C(C)C)c2ccc(CO)cc2)cc1", "note": "[Cpd 194]", "Ki": 1.38}, {"molecule": "CCNC(=O)c1ccc(C(=C2CC3CCC(C2)N3C(=O)OCC)c2cc(C)c(O)c(C)c2)cc1", "note": "[Cpd 173, 3-[(4-Ethylcarbamoyl-phenyl)-(4-hydroxy-3,5-dimethyl-phenyl)-methylene]-8-aza-bicyclo[3.2.1]octane-8-carboxylic acid ethyl ester]", "Ki": 932}, {"molecule": "CCNC(=O)c1ccc(C(=C2CC3CCC(C2)N3C(=O)OCC)c2ccc(O)c(OC)c2)cc1", "note": "[Cpd 172, 3-[(4-Ethylcarbamoyl-phenyl)-(4-hydroxy-3-methoxy-phenyl)-methylene]-8-aza-bicyclo[3.2.1]octane-8-carboxylic acid ethyl ester]", "Ki": 5150}, {"molecule": "CCNC(=O)c1ccc(C(=C2CC3CCC(C2)N3Cc2ccccn2)c2ccc(C(N)=O)cc2)cc1", "note": "[Cpd 183]", "Ki": 36.9}, {"molecule": "CCNC(=O)c1ccc(C(=C2CC3CCC(C2)N3Cc2nccs2)c2ccc(C(N)=O)cc2)cc1", "note": "[Cpd 188]", "Ki": 53.9}, {"molecule": "CCNC(=O)c1ccc(C(=C2CC3CCC(C2)N3Cc2ccoc2)c2cccc(-c3nnn[nH]3)c2)cc1", "note": "[Cpd 170]", "Ki": 0.73}, {"molecule": "CCNC(=O)c1ccc(C(=C2CC3CCC(C2)N3CC=C(C)C)c2nnn[nH]2)cc1", "note": "[Cpd 147]", "Ki": 58.4}]}]}
